{"source": "PubChem BioAssay AID1768", "about": "(National Center for Advancing Translational Sciences (NCATS), 2009)", "note": "Out of some 270,000 compounds screened, about 620 (0.23%) were called active. The inconclusive results got no clear call from the source; some entries with a clear call stand among them for comparison. The call rests on the fitted dose curve; in most records, active means well fitted inhibition curve with a large enough effect in the polarisation, with a control signal flat (not every such curve was filed as active); inconclusive means small, poorly fitted or top-dose-only effect, or effect the other way, or a change in a side signal; inactive means no such curve, though single readings can be large or run the other way; the % refers to the polarisation. Where the call is inconclusive, the potency comes from a doubtful curve fit. “Side channel” marks fits to a control or component signal instead of the main read-out. Potency means the concentration at half of the fitted maximal effect; tags describe the fitted curve by direction and shape or compound fluorescence and quenching.", "data": [{"molecular_target": "Menin (Homo sapiens) (UniProt O00255)", "sequence (O00255 whole entry, looked up)": "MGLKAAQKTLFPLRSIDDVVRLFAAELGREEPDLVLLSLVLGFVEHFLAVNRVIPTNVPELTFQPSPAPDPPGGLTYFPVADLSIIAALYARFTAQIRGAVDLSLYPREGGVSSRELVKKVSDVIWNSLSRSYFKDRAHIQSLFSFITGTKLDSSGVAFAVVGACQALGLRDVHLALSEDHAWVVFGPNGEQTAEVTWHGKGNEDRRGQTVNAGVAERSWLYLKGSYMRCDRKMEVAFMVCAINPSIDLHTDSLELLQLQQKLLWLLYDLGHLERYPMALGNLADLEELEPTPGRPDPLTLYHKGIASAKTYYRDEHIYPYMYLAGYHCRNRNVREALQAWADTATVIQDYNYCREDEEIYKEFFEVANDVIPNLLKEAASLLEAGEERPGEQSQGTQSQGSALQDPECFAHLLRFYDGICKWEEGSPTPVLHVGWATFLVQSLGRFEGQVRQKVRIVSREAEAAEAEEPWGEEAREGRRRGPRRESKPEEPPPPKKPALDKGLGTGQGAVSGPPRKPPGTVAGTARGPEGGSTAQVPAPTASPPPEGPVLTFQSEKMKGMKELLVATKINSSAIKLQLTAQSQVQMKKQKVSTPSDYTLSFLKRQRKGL", "test": "qHTS Assay for Inhibitors Targeting the Menin-MLL Interaction in MLL Related Leukemias: Competition With Texas Red Labeled MLL-derived Mutant Peptide", "conditions": "fluorescence polarization; series mostly up to 61.6 µM", "values": [{"smiles": "O=C(NC(NC(=S)Nc1ccccc1)C(Cl)(Cl)Cl)c1cccc(Cl)c1", "note": "(centres undefined)", "Potency": "inconclusive: 39.8 µM [inhibitor, single point]"}, {"smiles": "CCCOc1ccc(C(O)(CCN2CCCCC2)c2ccccc2OC)cc1", "note": "(centres undefined)", "Potency": "inconclusive: 12.6 µM [fluorescent, side channel, partial curve]"}, {"smiles": "COc1ccc(-c2ccc(CCC(=O)O)n2CC(C)C)cc1", "Potency": "inactive"}, {"smiles": "Cc1ccc(O)c(Nc2nc(-c3ccccc3)nc3ccccc23)c1", "Potency": "inconclusive: 5.62 µM [quencher, side channel, partial curve]"}, {"smiles": "S=c1[nH]c(-c2cccs2)cn1-c1ccccc1", "Potency": "inconclusive: 8.91 µM [quencher, side channel, single point]"}, {"smiles": "O=C(CN(Cc1ccco1)C(=O)c1ccc(Cl)cc1)Nc1ccc(Cl)c(Cl)c1", "Potency": "inconclusive: 22.4 µM [quencher, side channel, single point]"}, {"smiles": "CC(C)c1onc(C(=O)Nc2cccc(Cl)c2)c1[N+](=O)[O-]", "Potency": "inconclusive: 25.1 µM [quencher, side channel, partial curve]"}, {"smiles": "O=[N+]([O-])c1ccccc1NCCNc1ncc(C(F)(F)F)cc1Cl", "Potency": "inconclusive: 14.1 µM [quencher, side channel, partial curve]"}, {"smiles": "C/C(=N\\NC(=O)c1ccc(Br)cc1)C1C(=O)c2ccccc2C1=O", "Potency": "inconclusive: 22.4 µM [quencher, side channel, partial curve]"}, {"smiles": "O=C1CCC(=O)N1c1cccc(-c2nc3ccccc3o2)c1", "Potency": "inconclusive: 31.6 µM [inhibitor, single point]"}, {"smiles": "CCOC(=O)C1(Cc2cccc(OC)c2)CCCN(CCO)C1", "note": "(centres undefined)", "Potency": "inactive"}, {"smiles": "CCCN(c1ccc(OCC)cc1)c1ncnc2nc[nH]c12", "Potency": "inactive"}, {"smiles": "O=C1C2N=NN(CC(=O)N3N=C(c4cccc5ccccc45)CC3c3ccccc3)C2C(=O)N1c1ccccc1", "note": "(centres undefined)", "Potency": "inconclusive: 8.91 µM [inhibitor, partial curve]"}, {"smiles": "O=C(Nc1ccc([N+](=O)[O-])cc1)Nc1ccc2c(c1)OCCO2", "Potency": "inconclusive: 11.2 µM [quencher, side channel, partial curve]"}, {"smiles": "COc1c(Cl)cc(C(=O)Nc2ccc(Cl)cn2)cc1Cl", "Potency": "inconclusive: 39.8 µM [inhibitor, single point]"}, {"smiles": "O=C(O)CN1C(=O)/C(=C\\c2cc(Br)ccc2OCc2ccccc2Cl)SC1=S", "Potency": "inconclusive: 11.2 µM [quencher, side channel, partial curve, poor fit]"}, {"smiles": "O=C(NC(=S)Nc1ccc(Cl)c(C(=O)O)c1)c1cccc(COc2ccccc2)c1", "Potency": "inconclusive: 11.2 µM [quencher, side channel, partial curve]"}, {"smiles": "S=c1[nH]nc(COc2ccccc2)n1C1CCCCC1", "Potency": "inactive"}, {"smiles": "C/C(=C\\c1ccccc1)C(=O)N1CCN(Cc2ccc3c(c2)OCO3)CC1", "Potency": "inconclusive: 12.6 µM [fluorescent, side channel, partial curve]"}, {"smiles": "CC(C)CN(C(=O)CSc1nnnn1-c1ccccc1)c1c(N)n(CC(C)C)c(=O)[nH]c1=O", "Potency": "inconclusive: 35.5 µM [fluorescent, side channel, single point]"}, {"smiles": "CCCc1nc2sc3ccccc3c(=O)c2c(=O)n1Cc1ccco1", "Potency": "inactive"}, {"smiles": "COc1ccccc1-n1c(SCC(=O)Nc2cccc3ccccc23)nc(O)cc1=O", "Potency": "inconclusive: 8.91 µM [quencher, side channel, partial curve]"}, {"smiles": "Cc1cc(C)nc(SCC(=O)Nc2ccc(N3CCOCC3)cc2)n1", "Potency": "inactive"}, {"smiles": "Cc1ccc2[nH]c(=O)c(CN(C)C(=O)c3cccs3)cc2c1", "Potency": "inconclusive: 35.5 µM [fluorescent, side channel, single point]"}, {"smiles": "CS(=O)(=O)c1ccc2nc(NC(=O)c3ccc(Cl)cc3)sc2c1", "Potency": "inconclusive: 39.8 µM [inhibitor, single point]"}, {"smiles": "Cc1cc(C(C)(C)C)oc1C(=O)OCC(=O)NC1CCCCC1", "Potency": "inconclusive: 20 µM [fluorescent, side channel, partial curve]"}, {"smiles": "Cc1cc(C)c2c(CN3CC(C)OC(C)C3)cc(=O)oc2c1C", "note": "(centres undefined)", "Potency": "inconclusive: 10 µM [fluorescent, side channel, partial curve]"}, {"smiles": "CC(C)(C)n1nnnc1C(c1ccccn1)N1CCN(C(c2ccccc2)c2ccccc2)CC1", "note": "(centres undefined)", "Potency": "inconclusive: 2.51 µM [fluorescent, side channel, full curve]"}, {"smiles": "O=S(=O)(c1ccccc1)c1nc(-c2ccccc2)oc1N1CCCC1", "Potency": "inconclusive: 20 µM [inhibitor, partial curve]"}, {"smiles": "Cc1c(Cl)cnc(NC(=O)COC(=O)c2ccc([N+](=O)[O-])s2)c1Cl", "Potency": "inconclusive: 25.1 µM [quencher, side channel, single point]"}, {"smiles": "CCCC(=O)Nc1nc(C)c(-c2csc(Nc3ccccc3OC)n2)s1", "Potency": "inconclusive: 15.8 µM [quencher, side channel, partial curve]"}, {"smiles": "Cc1c(C(=O)N(C)C2CCCCC2)sc2nc3ccc(N)cc3n12", "Potency": "inactive"}, {"smiles": "Cc1nn(-c2ccccc2)nc1C(=O)Nc1ccc2[nH]ncc2c1", "Potency": "inconclusive: 39.8 µM [fluorescent, single point]"}, {"smiles": "O=C(CSc1nnc(-c2ccccc2)n1-c1ccccc1)NCc1ccco1", "Potency": "inconclusive: 39.8 µM [fluorescent, side channel, single point]"}, {"smiles": "CN1C2CCC1CC(N(CCc1ccccc1)C(=O)c1ccc(Cl)cc1)C2", "note": "(centres undefined)", "Potency": "inconclusive: 10 µM [inhibitor, partial curve]"}, {"smiles": "N/C(=N\\OC(=O)Cc1ccc([N+](=O)[O-])cc1)c1cccc(Br)c1", "Potency": "inconclusive: 12.6 µM [quencher, side channel, partial curve]"}, {"smiles": "Cc1ccc(NC(=O)Cc2cccs2)cc1Cl", "Potency": "inconclusive: 35.5 µM [quencher, side channel, single point]"}, {"smiles": "O=C1S/C(=C\\c2ccccc2)C(=O)N1CC(O)Cn1c2ccccc2c2ccccc21", "note": "(centres undefined)", "Potency": "inconclusive: 39.8 µM [inhibitor, single point]"}, {"smiles": "CC1CCN(C(=O)c2ccc([N+](=O)[O-])o2)CC1", "Potency": "inactive"}, {"smiles": "Cn1nc(C(=O)N2CCCC2)c2ccccc2c1=O", "Potency": "inconclusive: 4.47 µM [inhibitor, full curve, poor fit]"}, {"smiles": "CCOc1cccc(CNCc2cccnc2)c1OCc1ccccc1", "Potency": "inconclusive: 20 µM [fluorescent, side channel, partial curve]"}, {"smiles": "O=c1c2ccccc2sn1-c1cc(S(=O)(=O)N2CCOCC2)ccc1N1CCOCC1", "Potency": "inconclusive: 25.1 µM [quencher, side channel, single point]"}, {"smiles": "Cc1coc(C)c1C(=O)CC1(O)C(=O)N(Cc2ccccc2)c2ccccc21", "note": "(centres undefined)", "Potency": "inactive"}, {"smiles": "COc1cc(NC(=O)C2=CC(c3cccs3)=NS(=O)(=O)N2C)cc(OC)c1OC", "Potency": "inconclusive: 28.2 µM [quencher, side channel, single point]"}, {"smiles": "CCOC(=O)c1c(N)sc2c1CCC1C(=O)N(C3CCCCC3)C(=O)C21", "note": "(centres undefined)", "Potency": "inconclusive: 39.8 µM [quencher, side channel, single point]"}, {"smiles": "O=C1/C(=C/c2ccc(O)c([N+](=O)[O-])c2)SC(=S)N1Cc1ccccc1", "Potency": "inconclusive: 12.6 µM [quencher, side channel, partial curve]"}, {"smiles": "Cc1cc(-c2ccc(C)c(S(=O)(=O)NCc3cccc(Br)c3)c2)on1", "Potency": "inconclusive: 31.6 µM [quencher, side channel, single point]"}, {"smiles": "CCOC(=O)c1sc(NC(=O)CSc2nc(C)cc(C(F)(F)F)n2)c(C#N)c1C", "Potency": "inconclusive: 25.1 µM [quencher, side channel, partial curve]"}, {"smiles": "O=C(Nc1nc2ccccc2[nH]1)Nc1ccccc1F", "Potency": "inconclusive: 35.5 µM [quencher, side channel, single point]"}, {"smiles": "Cc1ccc(-c2csc3nc4c5ccccc5c(NCCCN(C)C)nn4c(=O)c23)cc1", "Potency": "inconclusive: 2.24 µM [inhibitor, full curve, poor fit]"}, {"smiles": "COc1ccc(C(=O)CSc2nnc(NC(=O)C3CC(=O)N(c4ccccc4C)C3)s2)cc1", "note": "(centres undefined)", "Potency": "inconclusive: 20 µM [quencher, side channel, partial curve]"}, {"smiles": "CCC(=O)Nc1ccc(C(=O)CSc2nnc(-c3cccnc3)o2)cc1", "Potency": "inconclusive: 35.5 µM [quencher, side channel, single point]"}, {"smiles": "Cc1oc(/N=C/c2cccc([N+](=O)[O-])c2)c(C#N)c1C", "Potency": "inconclusive: 28.2 µM [quencher, side channel, partial curve]"}, {"smiles": "O=C(Nc1ccccc1NC(=O)c1ccccc1F)c1ccccc1F", "Potency": "inactive"}, {"smiles": "O=C(Nc1cccc(Br)c1)c1ccc2nc(N3C(=O)CCC3=O)sc2c1", "Potency": "inconclusive: 12.6 µM [quencher, side channel, partial curve]"}, {"smiles": "CCC(=O)Nc1ccc(NC(=O)c2cccc3c(Br)cccc23)cc1", "Potency": "inconclusive: 20 µM [inhibitor, single point]"}, {"smiles": "O=C(NNC(=O)c1ccccc1Br)c1cccc(Cl)c1", "Potency": "inconclusive: 25.1 µM [inhibitor, partial curve]"}, {"smiles": "Cc1ccc(NS(=O)(=O)c2ccc(Cl)c(C(=O)Nc3ccccc3-c3nc4ccccc4[nH]3)c2)cc1C", "Potency": "inconclusive: 35.5 µM [inhibitor, single point]"}, {"smiles": "COC(=O)c1ccccc1NS(=O)(=O)c1ccc(O)c(C(=O)O)c1", "Potency": "inconclusive: 31.6 µM [quencher, side channel, single point]"}]}]}
